The other results are listed elsewhere or left out. The full chains were built here from the parent and the listed change. Values near 0.05 are background.
B1: TEV protease; numbered along this chain (parent)
chain: MGESLFKGPRDYNPISSSICHLTNESDGHTTSLYGIGFGPFIITNKHLFRRNNGTLVVQSLHGVFKVKDTTTLQQHLVDGRDMIIIRMPKDFPPFPQKLKFREPQREERICLVTTNFQTKSMSSMVSDTSCTFPSGDGIFWKHWIQTKDGQCGSPLVSTRDGFIVGIHSASNFTNTNNYFTSVPKNFMELLTNQEAQQWVSGWRLNADSVLWGGHKVFMVKPEEPFQPVKEATQL

Variants of: B1
Assay: raw area under fraction-flipped curve 0-4 h after induction (AUC4h, not background-subtracted), DNA-recorder readout of cleavage of the substrate (dimensionless); higher = more cleavage of the substrate by the protease variant
Conditions: temperature: 34 °C; time window: 0-4 h after rhamnose induction
Procedure: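 In vivo DNA recorder in E. coli TOP10(DE3) ΔrhaA at 34 °C. Each TEVp single-site mutant (parent TEVp 0) is paired with a single-site variant of the 7-mer TEVs (canonical ENLYFQ|S). The substrate sits between flexible linkers in a Bxb1-sfGFP-TEVs-SsrA fusion, so cleavage stabilises Bxb1 and speeds flipping of a recombination array, read by NGS. The value is the raw area under the fraction-flipped curve over 0-4 h after rhamnose induction (AUC4h), with ≥20 reads per time point. It is not background-subtracted; inactive controls average about 0.047.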
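Note: Bxb1 expression induced with 0.2% (w/v) L-rhamnose at OD600 near 0.5, cultures sampled hourly, flipped fraction per protease–substrate barcode pair counted by paired-end Illumina sequencing.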

Variant | area with substrate ENLYAQS | area with substrate ENLYDQS | area with substrate ENLYEQS | area with substrate ENLYGQS | area with substrate ENLYHQS | area with substrate ENLYIQS | area with substrate ENLYKQS | area with substrate ENLYMQS | area with substrate ENLYNQS | area with substrate ENLYPQS | area with substrate ENLYQQS | area with substrate ENLYRQS | area with substrate ENLYSQS | area with substrate ENLYWQS | area with substrate ENLYCQS | area with substrate ENLYTQS | area with substrate ENLYVQS | area with substrate ENLYYQS | area with substrate ENLYLQS
T55L | 0.0893 | 0.0675 | 0.0625 | 0.0633 | 0.0625 | 0.111 | 0.0406 | 0.0823 | 0.0689 | 0.0605 | 0.065 | 0.0672 | 0.0349 | 0.0713 | – | – | – | – | –
T55N | 0.0784 | – | 0.0783 | 0.0732 | 0.0565 | – | 0.0602 | 0.0757 | 0.0642 | – | 0.0627 | – | 0.147 | 0.09 | 0.0701 | 0.0741 | 0.125 | 0.0833 | –
T55D | 0.0881 | 0.0576 | 0.0635 | – | 0.0517 | 0.113 | 0.0651 | 0.0762 | 0.0435 | 0.0773 | – | 0.0576 | 0.072 | 0.073 | 0.0746 | – | 0.0349 | – | –
G80S | 0.076 | 0.0718 | 0.0704 | 0.0616 | – | – | 0.0909 | 0.102 | 0.0701 | – | – | 0.0499 | – | 0.0802 | – | – | – | 0.0784 | 0.0775
F95K | 0.0451 | – | – | 0.044 | 0.0656 | 0.0697 | – | – | 0.0538 | – | 0.0494 | – | 0.0465 | – | – | 0.0627 | – | – | –
F95C | 0.0645 | 0.0552 | – | 0.0707 | – | 0.0923 | 0.0404 | – | – | – | – | 0.068 | 0.0627 | – | – | – | – | 0.0577 | –
L73D | 0.0636 | 0.0673 | 0.0471 | 0.0388 | 0.0505 | – | 0.054 | – | 0.0535 | 0.0641 | 0.0427 | 0.0529 | – | 0.0428 | 0.0504 | – | 0.0517 | 0.0483 | 0.0462
L73H | 0.0421 | 0.0542 | 0.0584 | 0.0469 | – | 0.0537 | 0.0495 | – | 0.0503 | 0.0143 | 0.0518 | 0.0395 | – | 0.0447 | – | 0.0528 | 0.0466 | – | –
L61R | 0.0917 | – | – | 0.0743 | 0.0763 | – | – | 0.0955 | 0.0624 | 0.0738 | 0.059 | – | – | 0.0861 | 0.0648 | – | 0.181 | – | –
R106Y | 0.0709 | 0.0616 | – | 0.0544 | 0.067 | 0.131 | – | 0.0773 | 0.068 | – | – | – | – | 0.0934 | 0.0771 | 0.0781 | 0.105 | 0.0889 | –
R106M | 0.0551 | – | 0.0758 | 0.0685 | 0.0837 | 0.186 | – | 0.0954 | 0.0652 | 0.064 | 0.0601 | 0.0562 | 0.0966 | 0.0969 | 0.099 | – | 0.135 | 0.103 | –
P94R | 0.0499 | – | 0.0822 | 0.066 | 0.0574 | 0.179 | – | 0.0827 | 0.0683 | 0.0862 | 0.0585 | – | – | 0.077 | – | – | – | – | 0.0722
F101L | 0.0995 | 0.0561 | 0.0595 | – | 0.0679 | 0.122 | – | – | – | 0.0749 | 0.0615 | 0.0455 | 0.0472 | – | – | – | 0.0535 | – | –
K66G | 0.0711 | 0.0305 | 0.0609 | 0.0442 | 0.0683 | – | – | 0.0686 | 0.0507 | 0.0626 | – | 0.0519 | 0.0719 | 0.0846 | 0.094 | 0.0685 | 0.102 | 0.056 | 0.081

Source: the supplement of paper PMC12217912
